Measured values: PubChem BioAssay AID1745845 (National Center for Advancing Translational Sciences (NCATS), 2022)
Values joined by “and” are separate entries in the source; they are usually repeats but may differ in a detail not shown here. Identical values can stand only once. Screen size: about 360,000 compounds; about 2,600 (0.72%) were called active. The shares of active, inactive and inconclusive entries below differ from those in the screen. Calls follow the shape of the dose curve; as a rule, active = well fitted inhibition curve with a large enough effect; inconclusive = small, poorly fitted or top-dose-only effect; inactive = no such curve, though single readings can be large or run the other way. Potencies beside an inconclusive call are fits to weak or partial responses and may not hold up.

Assay: Primary qHTS for Inhibitors of ATXN expression; also: nearly all actives have a fitted effect of over 55% in size
Settings: HEK-293 ATXN2-luciferase reporter, luminescence, 24 h; activity change, negative = inhibition: at 57 µM (top of the series)
Outline: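 qHTS (up to 57 uM final) was run with 24 h compound exposure of reporter cells at 37 °C. Each well was multiplexed: SteadyGlo luminescence measured ATXN2-luciferase expression after a fluorogenic Gly-Phe-AFC viability readout (25 uM final).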
% is scaled to controls: 0 for no effect and ±100 for the full control effect; potency is read from the fitted curve at half-maximal effect; tags tell the direction and shape of the fitted curve.

**Q.** Which Potency does the source give for `N#C/C(=C/c1ccc(N2CCCCCC2)o1)c1ccc(Cl)cc1` here?
**A.** inconclusive: 39.8 µM [inhibitor, single point]

**Q.** For `Cc1ccc(NS(=O)(=O)c2ccc(NC(=O)c3ccc(-c4ccccc4)cc3)cc2)c(C)c1`, which Potency is on record?
**A.** inconclusive: 15.8 µM [inhibitor, partial curve]

**Q.** With `CC1=[N+](C)c2ccc3ccccc3c2C1(C)C` as the molecule, how does the Potency read?
**A.** inconclusive: 10 µM [inhibitor, partial curve, poor fit]

**Q.** Which Potency does the source give for `CCOc1ccc(C(=O)c2cn(Cc3cccc(OC)c3)c3cc4c(cc3c2=O)OCO4)cc1` here?
**A.** inconclusive: 12.6 µM [inhibitor, partial curve, poor fit]

**Q.** Which Potency does the source give for `Cc1ccc(-n2nnc3c(=O)oc4ccccc4c32)cc1` here?
**A.** inconclusive: 39.8 µM [inhibitor, single point]

**Q.** For `O=C(CSc1ncc(-c2ccc(Cl)cc2)[nH]1)Nc1ccccc1F`, which Potency is on record?
**A.** inconclusive: 39.8 µM [inhibitor, partial curve, poor fit]

**Q.** Which “activity change, negative = inhibition” value does the source give for `CCOC(=O)N1CCN(C(=O)CCCCCn2c(=S)[nH]c3ccsc3c2=O)CC1` here?
**A.** inactive: -7.07%

**Q.** With `CCCCNC(=S)NNC(=O)c1c(Cl)c(C)nn1C` as the molecule, how does the “activity change, negative = inhibition” value read?
**A.** inactive: 7.32%

**Q.** Which Potency does the source give for `O=c1ccc2c(-c3ccccc3S(=O)(=O)O)c3ccc(O)c(O)c3oc-2c1O` here?
**A.** inconclusive: 11.2 µM [inhibitor, partial curve, poor fit]

**Q.** With `CCOC(=O)c1c(C)oc2nc(C)nc(N(C)Cc3ccccc3)c12` as the molecule, how does the Potency read?
**A.** inconclusive: 14.1 µM [inhibitor, partial curve, poor fit]

**Q.** For `Cc1ccc2[nH]c(=O)c3cc(C(=O)NCc4cccc(Cl)c4)sc3c2c1`, which “activity change, negative = inhibition” value is on record?
**A.** inactive: 9.83%

**Q.** With `CC(C)Cn1c([N+](=O)[O-])nc2c1c(=O)[nH]c(=O)n2C` as the molecule, how does the Potency read?
**A.** inconclusive: 37.7 µM [inhibitor, single point]

**Q.** Which Potency does the source give for `CCN(Cc1ccccc1)S(=O)(=O)c1ccc(C(=O)N(CCCN(C)C)c2nc3cc4c(cc3s2)OCO4)cc1` here?
**A.** inconclusive: 35.5 µM [inhibitor, single point]

**Q.** Which Potency does the source give for `Cc1cc(C(=O)CCl)c(C)n1CCc1ccc(Cl)cc1` here?
**A.** active: 25.1 µM

**Q.** For `COc1ccc(NC(C)=O)cc1S(=O)(=O)Nc1ccc2c(c1)OCCO2`, which activity change, negative = inhibition is on record?
**A.** inconclusive: -46.6% [inhibitor]

**Q.** For `CCOC(=O)c1c2ccc(OCC(=O)N/N=C/c3ccc(C)cc3)cc2n2ccccc12`, which Potency is on record?
**A.** inconclusive: 14.1 µM [inhibitor, partial curve]

**Q.** Which Potency does the source give for `Cc1cc(C)cc(NS(=O)(=O)CCCS(=O)(=O)Nc2cc(C)cc(C)c2)c1` here?
**A.** inconclusive: 39.8 µM [inhibitor, single point]

**Q.** With `CNc1ccc(/C=C/C(=O)c2cccc3ccccc23)cc1[N+](=O)[O-]` as the molecule, how does the Potency read?
**A.** inconclusive: 22.4 µM [inhibitor, partial curve, poor fit]

**Q.** For `CC[n+]1c(/C=C2\C=C(C)CC(C)C2)sc2ccccc21` (configuration not stated), which Potency is on record?
**A.** inconclusive: 6.31 µM [inhibitor, partial curve, poor fit]

**Q.** With `Cc1ccc(-n2[nH]c(C)c(C=Nc3cc(C)ccn3)c2=O)cc1` as the molecule, how does the “activity change, negative = inhibition” value read?
**A.** inactive: -6.71%

**Q.** Which Potency does the source give for `Cc1ccc(C23CC4CC(CC(NC(=O)NCCN(C)C)(C4)C2)C3)cc1` here?
**A.** inconclusive: 20 µM [inhibitor, partial curve, poor fit]

**Q.** Which “activity change, negative = inhibition” value does the source give for `O=C(Nc1ccc(Cl)c(Cl)c1)OCCNC(=O)c1ccncc1` here?
**A.** inactive: -18.4%

**Q.** With `N#Cc1c(N2CCN(c3ccc([N+](=O)[O-])cc3)CC2)[n+](=O)c2ccc(Cl)cc2n1[O-]` as the molecule, how does the Potency read?
**A.** inconclusive: 25.1 µM [inhibitor, partial curve]

**Q.** For `Cc1cc(NC(=O)CSc2nc3c(c(=O)n2-c2ccc(Br)cc2)SCC3)no1`, which Potency is on record?
**A.** inconclusive: 39.8 µM [inhibitor, single point]

**Q.** With `NC(=O)C1CCN(C2=C(Cl)C(=O)c3ccccc3C2=O)CC1` as the molecule, how does the Potency read?
**A.** inconclusive: 15.8 µM [inhibitor, partial curve, poor fit]

**Q.** Which “activity change, negative = inhibition” value does the source give for `CC(NC(=O)CCCN1C(=O)CCn2nc(-c3cn(C)c4ccccc34)cc21)c1ccccc1` (configuration not stated) here?
**A.** inactive: -21.4%

**Q.** With `c1ccc(CC2CCN(Cc3ccccn3)CC2)cc1` as the molecule, how does the “activity change, negative = inhibition” value read?
**A.** inactive: -19.2%

**Q.** Which Potency does the source give for `Cc1ccc(/C=C/C(=O)c2c(C)cc(C)[nH]c2=O)cc1` here?
**A.** inconclusive: 39.8 µM [inhibitor, single point]

**Q.** With `CCCOC(=O)c1ccc(Oc2c(-c3ccc(OCC)cc3O)n[nH]c2C)cc1` as the molecule, how does the Potency read?
**A.** inconclusive: 35.5 µM [inhibitor, single point]

**Q.** With `O=C(Nc1cccc(F)c1)C1CCCN(S(=O)(=O)c2ccc(-n3cnnn3)cc2)C1` (configuration not stated) as the molecule, how does the “activity change, negative = inhibition” value read?
**A.** inactive: -0.999%

**Q.** For `COc1ccccc1CNC(=O)CCCCn1c(=O)c2ccccc2n(Cc2ccccc2C)c1=O`, which “activity change, negative = inhibition” value is on record?
**A.** inactive: 1.99%

**Q.** With `CCCC(NCC(O)COc1ccc(-c2ccccc2)cc1)c1ccccc1` (configuration not stated) as the molecule, how does the Potency read?
**A.** active: 18.9 µM

**Q.** With `O=C(NCCn1cc(SCc2ccccc2)c2ccccc21)c1cccs1` as the molecule, how does the Potency read?
**A.** inconclusive: 28.2 µM [inhibitor, single point]

**Q.** With `CCc1ccccc1N1CC(c2nc3ccccc3n2CCOc2ccc(Cl)c(C)c2)CC1=O` (configuration not stated) as the molecule, how does the Potency read?
**A.** inconclusive: 31.6 µM [inhibitor, single point]

**Q.** With `Nc1cc(-c2ccc(OC(F)(F)F)cc2)nn1-c1ccc(Cl)c(Cl)c1` as the molecule, how does the “activity change, negative = inhibition” value read?
**A.** inactive: -37.4%

**Q.** Which Potency does the source give for `CC1(C)CC(=O)C(C=NCC2CCNCC2)=C(O)C1` here?
**A.** inconclusive: 31.6 µM [inhibitor, partial curve, poor fit]

**Q.** For `O=C(NCCCN1CCOCC1)c1cc(-c2ccc(Br)cc2)on1`, which “activity change, negative = inhibition” value is on record?
**A.** inactive: -37.9%

**Q.** For `Nc1[nH]n2c(=O)c3c(nc2c1N=Nc1ccc(Cl)cc1)CCCC3`, which Potency is on record?
**A.** inconclusive: 12.6 µM [inhibitor, partial curve, poor fit]

**Q.** For `CC1=C(/C=C/C(C)=C/C=C/C(C)=C/C(=O)Nc2ccc(O)cc2)C(C)(C)CCC1`, which Potency is on record?
**A.** active: 31.6 µM and active: 20 µM and inconclusive: 28.2 µM [inhibitor, partial curve, poor fit]

**Q.** With `CC(=O)N1CCc2cc(Br)cc(S(=O)(=O)NCCc3ccc(Cl)cc3)c21` as the molecule, how does the “activity change, negative = inhibition” value read?
**A.** inactive: 8.48%

**Q.** Which Potency does the source give for `O=C(c1cccc(S(=O)(=O)NCc2ccccc2)c1)N1CCN(c2ccccc2Cl)CC1` here?
**A.** inconclusive: 39.8 µM [inhibitor, single point]

**Q.** Which “activity change, negative = inhibition” value does the source give for `O=C(CCc1ccccc1)NNC(=O)c1ccc(Cl)cc1` here?
**A.** inactive: -7.91%
